Assay results from article PMC12040169 (PLOS Biology, 2025).
The other results are listed elsewhere or left out.

These compounds were tested on T1, C. trachomatis L2/434/Bu expressing GFP (CTL2-GFP). Conditions: total inclusion area; 28.5 h, 10 µM; inhibitor.
T1 construct: L2/434/Bu GFP intracellular growth in HeLa cells
Design: species or system HeLa; C. trachomatis total inclusion area by high-content imaging, normalised to DMSO
Summary of the method: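 High-content imaging followed the bulk GFP/resorufin measurement: fixed, Hoechst-stained cells were scored for GFP inclusions and host nuclei per well. Total inclusion area and count served as growth proxies, nuclei number as the viability proxy. MIC calculation matched the bulk assay.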

Row | SMILES | % of control remaining
1 | Cc1noc(C)c1CN1CCC(c2ccccc2)CC1 [CBK306001] | 54.4395
2 | CC(C)(C)OC(=O)N1CCC[C@@H]([C@H](O)c2nccs2)C1 [CBK284283] | 62.6801
3 | Cc1c(C(=O)O)cccc1N1C(=O)c2ccc([N+](=O)[O-])cc2C1=O [CBK262724] | 82.3995
4 | CS(=O)(=O)N(CC(=O)Nc1ccc(S(=O)(=O)N2CCCCCC2)cc1)c1ccc(F)cc1 [CBK266932] | 110.413
5 | Cc1cc(Cl)cc(Br)c1OCCNCCN1CCOCC1 [CBK268615G] | 74.3443
6 | Cn1ccnc1C1(O)C2CCCC1CN(Cc1ccccc1F)C2 (stereo not shown) [CBK285206] | 102.172
7 | Cn1ccc(C(=O)NC(Cc2cccs2)c2nccs2)n1 (stereo not shown) [CBK285135] | 76.9276
8 | Cn1/c(=N\C(=O)c2cccs2)sc2cc(Br)ccc21 [CBK018873] | 92.0747
9 | COc1ccc2c(c1)C1(CC(=O)N(Cc3ccccc3)C1=O)C(=O)N2Cc1ccccc1 (stereo not shown) [CBK075228] | 107.827
10 | O=C(O)COc1ccc(NC(=O)c2ccc3c(c2)C(=O)N(C2CCCCC2)C3=O)cc1 [CBK266009] | 145.95
11 | CCN(CC)C(=O)N1CCN(Cc2cccc(OC)c2)C[C@@H]1C [CBK284268] | 70.4612
12 | COc1cc(NC(=O)c2ccccc2)c(C(=O)O)cc1OC [CBK227754] | 86.303
13 | O=C(CN1CCCCC1)Nc1sc2c(c1C(=O)Nc1ccccc1)CCCC2 [CBK267974] | 83.0002
14 | CCC(/C=C1\Sc2ccccc2N1CCCS(=O)(=O)[O-])=C\c1oc2ccc(OC)cc2[n+]1C [CBK261080] | 87.6712
15 | COC(=O)c1ccc(NC(=S)NC(=O)c2cncc(Br)c2)cc1 [CBK099257] | 94.8788
16 | CC(=O)Oc1cccc(NC(=O)CC2Sc3ccccc3NC2=O)c1 (stereo not shown) [CBK261792] | 102.731
17 | COc1ccc2c(c1OC)C(=O)N1c3ccccc3COC21 (stereo not shown) [CBK109960] | 46.7167
18 | Cc1ccc(-c2csc(NC(=O)CN3C(=O)CCC3=O)n2)cc1 [CBK287346] | 96.2332
19 | Cc1ccc(NC(=O)CSc2nnc(C(O)c3ccccc3)n2-c2ccccc2)c(Br)c1 (stereo not shown) [CBK267421] | 104.992
20 | Cc1cc(C[C@@H]2COC[C@H]2NCc2ccccc2Cl)on1 [CBK282969] | 108.538
21 | Cc1nc(CC(=O)Nc2nn(C)c3cccc(N4CCOCC4)c23)cs1 [CBK306627] | 90.993
22 | COc1ccccc1CNCc1ccc(CNC(=O)OC(C)(C)C)cc1 [CBK056702] | 66.6623
23 | O=C(Cn1cc(-c2ccc(CN3CCOCC3)cc2)nn1)NCc1cccc(C(F)(F)F)c1 [CBK165803] | 82.8239
24 | CC(C)CC(C(=O)Nc1ccc(Br)cc1)N1C(=O)c2ccccc2C1=O (stereo not shown) [CBK264253] | 89.6688
25 | NC(=O)c1ccc(-c2cc(Nc3ccc(CCO)cc3)ncn2)cc1 [CBK090773] | 110.118
26 | Cc1ccc(S(=O)(=O)N(CC(=O)Nc2cccnc2)c2cccc([N+](=O)[O-])c2)cc1 [CBK266404] | 67.3305
27 | CN(C)CCN1CCN(c2nc(-c3ccc(S(C)(=O)=O)cc3)cnc2N)CC1 [CBK063457] | 73.1974

Row | SMILES | % of control remaining
28 | N#Cc1nonc1NCn1nnc2ccccc21 [CBK062650] | 109.79
29 | CNC(=O)c1sc2ccccc2c1C1CCN(C(=O)CCN(C)c2ccc(F)cc2)C1 (stereo not shown) [CBK285878] | 106.842
30 | OCC1CCCCC1NCCCC(c1ccc(F)cc1)c1ccc(F)cc1 (stereo not shown) [CBK015830C] | 6.956
31 | O=C(c1cc(-c2ccccn2)n[nH]1)N1CCC(c2ccccc2)C1 (stereo not shown) [CBK281852] | 100.594
32 | CN1CCCC(OC(=O)C2CCCCC2)C1 (stereo not shown) [CBK090234] | 24.2158
33 | Cn1cc(C2CNCCN2C(=O)CCCc2csc3ccccc23)cn1 (stereo not shown) [CBK304274C] | 118.123
34 | COc1cc(C(=O)N2CCN(S(=O)(=O)c3ccccc3[N+](=O)[O-])CC2)cc(OC)c1OC [CBK264182] | 113.625
35 | Cc1cc2c(s1)c1cnn(CC(=O)N(C)C)c(=O)c1n2C [CBK284231] | 86.5629
36 | O=C(Nc1cnc(-c2cccc(C(F)(F)F)c2)c(-c2cccnc2)n1)c1cc(-c2ccco2)n[nH]1 [CBK036878] | 104.845
37 | O=C(N/N=C/c1cc(Br)cc(Br)c1O)C(Oc1ccccc1)Oc1ccccc1 [CBK262164] | 106.399
38 | COc1ccc(Nc2nc(-c3cccnc3)cs2)c(OC)c1 [CBK126814] | 92.1057
39 | OCC1CCCN1c1nc(-c2ccc(Oc3ccccc3)cc2)cn2ccnc12 (stereo not shown) [CBK066713] | 120.317
40 | O=C(O)c1cccc(-n2c(S)nnc2-c2ccc3ccccc3n2)c1 [CBK265810] | 72.2318
41 | Cc1nc(C2CN(Cc3c(Cl)ccc4cccnc34)CCO2)no1 (stereo not shown) [CBK305317] | 31.8644
42 | CC1(C)CC(=NNC(=O)CCc2cc(C(C)(C)C)c(O)c(C(C)(C)C)c2)CC(C)(C)N1 [CBK261952] | 74.7582
43 | COc1cc(NC(=O)N2CCN(CCc3ccccc3)CC2)cc(OC)c1OC [CBK158933] | 116.352
44 | O=C(O)C1CC(C(=O)O)C(C(=O)O)CC1C(=O)O (stereo not shown) [CBK261332] | 104.433
45 | CSc1nccc(N2CCC(NCCn3c(C)cc(C)nc3=O)CC2)n1 [CBK307070] | 84.0762
46 | COc1cccc2c1cc(C(=O)NCCn1ccnc1C)n2C [CBK283267] | 93.9325
47 | O=C(NCCn1c(=O)oc2ccccc21)C(c1cccs1)c1cccs1 [CBK286198] | 107.785
48 | CCC1C=CCN1S(=O)(=O)c1cccc(C(=O)NCc2cnn(C)c2)c1 (stereo not shown) [CBK307536] | 55.6992
49 | COc1cc(/C=C/c2[nH]c(=O)[nH]c(=O)c2[N+](=O)[O-])cc(Br)c1OCC(=O)O [CBK267977] | 96.8368
50 | Cc1ccsc1C(=O)N1CCC(c2n[nH]c3ncccc23)CC1 [CBK284910] | 113.645
51 | Cn1c(C2CC2)nc2c1CCN(Cc1cn3cc(Cl)ccc3n1)C2 [CBK305314] | 99.1116
52 | CCCOc1ccc(S(=O)(=O)NCc2ccc3c(c2)OCO3)c2ccccc12 [CBK269059] | 71.6733
53 | NC(=O)C1(N2CCCCC2)CCN(CC(=O)Nc2ccc(Oc3ccccc3)cc2)CC1 [CBK265774] | 102.201
54 | COc1ccc(OC)c(NC(=O)CNC(=O)c2ccccc2F)c1 [CBK267846] | 117.064

Row | SMILES | % of control remaining
55 | CN1CCC(N(C)Cc2ccc3c(c2)OCO3)CC1 [CBK261564] | 98.9154
56 | COc1cccc(Nc2cc(-c3ccco3)ncn2)c1OC [CBK090727] | 98.0713
57 | N#Cc1cccc(S(=O)(=O)Nc2ccc(-c3nnn[nH]3)cc2)c1 [CBK155427] | 87.7536
58 | Cc1cc(C)n(CCCNC(=O)Cc2csc(N3CCCC3=O)n2)n1 [CBK305708] | 47.4803
59 | COC(=O)Nc1ccc(S(=O)(=O)N2CCCC(C(=O)Nc3cccc(C(F)(F)F)c3)C2)cc1 (stereo not shown) [CBK265248] | 70.7936
60 | O=C(O)C1CCCCC1C(=O)N1CCN(Cc2cccc(Cl)c2)CC1 (stereo not shown) [CBK270330] | 62.3985
61 | CC(C)(C)c1ccc(-c2nc(Nc3cccc(C(=O)O)c3)c3ccccc3n2)cc1 [CBK265229C] | 86.4564
62 | CC(NC(=O)N1CCCCC1CO)c1ccccc1 (stereo not shown) [CBK155988] | 107.664
63 | CCOc1ccccc1Nc1nc(N)nc(CN2CCCCC2C)n1 (stereo not shown) [CBK266548] | 109.901
64 | COc1cc(C(c2c(C)n(C)n(-c3ccccc3)c2=O)c2c(C)n(C)n(-c3ccccc3)c2=O)ccc1O [CBK261690] | 90.662
65 | Cc1ncsc1CCC(=O)NCC1CCN(c2ccccc2F)C1 (stereo not shown) [CBK304675] | 39.323
66 | Cc1c(Cl)cccc1S(=O)(=O)Nc1ccc(C(=O)O)cc1 [CBK034050] | 78.6021
67 | CC(C)(C)OC(=O)N(Cc1cccs1)S(C)(=O)=O [CBK019338] | 63.2111
68 | CC(C)OCC(O)C[S+]([O-])Cc1ccccc1 (stereo not shown) [CBK261761] | 107.28
69 | c1ccc(Nc2nc(-c3ccco3)cn3ccnc23)cc1 [CBK037947] | 134.565
70 | Clc1ccccc1CSc1nnc2c(n1)OC=Nc1ccccc1-2 [CBK265085] | 101.359
71 | O=S(=O)(Nc1nncs1)c1ccccc1 [CBK045489] | 104.935
72 | CCOc1ccc(Nc2cc(Cl)nc(N)n2)cc1 [CBK288069] | 54.1911
73 | CC(C)(CN)CN(Cc1cccc2ccccc12)C(=O)NC1C[C@H]1c1ccccc1 (stereo partly shown) [CBK000490C] | 65.4104
74 | Cc1nnc(CN(C)C2CCN(Cc3ccc4c(c3)CCC4)C2)n1C (stereo not shown) [CBK304450] | 85.1277
75 | O=C(CN1CCC(C(O)C(=O)NC2CC2)CC1)Nc1cc(Cl)ccc1F (stereo not shown) [CBK305477] | 61.1851
76 | COc1ccc(C2c3ccccc3C[N+]3(C)CCCN23)cc1 (stereo not shown) [CBK008769] | 129.947
77 | O=C(CCc1ccccc1)N1CCCC1c1n[nH]cc1-c1ccncc1 (stereo not shown) [CBK283436] | 120.185
78 | CN1CCN(C(=O)CNS(=O)(=O)c2cc(F)c(Br)cc2F)CC1 [CBK034481] | 77.0197
79 | Nc1ccc(-c2nc(NC(=O)Cc3ccccc3)cnc2-c2ccc(F)c(Cl)c2)cc1 [CBK036690] | 71.649
